From patent US20110301335A1 (published 2011)

Biological target: T1, human TNFR1 on MRC-5 cells (human, UniProt P19438 30-455)
T1 sequence (looked up): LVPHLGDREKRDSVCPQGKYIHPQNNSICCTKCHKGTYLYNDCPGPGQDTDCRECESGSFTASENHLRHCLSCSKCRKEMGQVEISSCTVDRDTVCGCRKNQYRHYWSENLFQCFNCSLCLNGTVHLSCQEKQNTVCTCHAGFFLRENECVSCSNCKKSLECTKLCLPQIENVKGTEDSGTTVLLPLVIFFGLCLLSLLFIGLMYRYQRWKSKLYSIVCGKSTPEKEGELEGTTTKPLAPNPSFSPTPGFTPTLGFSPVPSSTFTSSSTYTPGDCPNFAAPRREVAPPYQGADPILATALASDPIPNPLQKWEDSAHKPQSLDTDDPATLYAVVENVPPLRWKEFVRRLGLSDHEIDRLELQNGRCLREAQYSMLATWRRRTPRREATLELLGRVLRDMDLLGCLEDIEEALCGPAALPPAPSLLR
Assay: cell-based or functional assay

B1: DMS0123 (bispecific antibody, V domains shown)
VH: EVQLLESGGGLVQPGGSLRLSCAASGFTFVKYSMGWVRQAPGKGLEWVSQISNTGDRRYYAD[about 20 residues omitted]MNSLRAEDTAVYYCAIYTGRWEPFVYWGQGTLVTVSS
- MRC5 (ND50 in nM): 5 nM
